Molecules are shown by their SMILES. Screen size: about 45,000 compounds; about 200 (0.44%) were called active. Another 7% or so got no clear call; they are omitted. Calls come from the whole dose curve; as a rule, active = well fitted activation curve with a large enough effect; inconclusive = small, poorly fitted or top-dose-only effect; inactive = no such curve, though single readings can be large or run the other way. The list shows a part of the results.

The record followed here is PubChem BioAssay AID1347073 (National Center for Advancing Translational Sciences (NCATS), 2019).

The nature of this assay: qHTS of TDP-43 Inhibitors: NCGC Sytravon Library Screen. Note: 0% is about no effect; nearly all actives have a fitted effect of over 55% in size. The note with it: yeast TDP-43 toxicity rescue, BacTiter-Glo growth, 24 h; series mostly up to 46.1 µM; growth rescue (activation): at the top concentration. In a few lines: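 TDP-43-expressing yeast, pregrown in raffinose, seeded at OD600 0.02 in galactose medium with compound for 24 hr at 30 deg C. Growth read by BacTiter-Glo luminescence, so rescue of toxicity appears as activation.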
Turning to `COc1ccccc1NC(=O)COC(=O)CCC(=O)c1cccs1`, the “growth rescue (activation)” value was inactive: 13.2%.
As for `CC1CCCC(C)N1C(=O)COC(=O)c1cncc(Br)c1` (stereo not drawn), the figure is inactive: -8.84%; as for `CC(=O)Nc1cccc(-c2ccnc3c2CC(C(=O)NCC2CC2)O3)c1` (stereo not drawn), inactive: 4.35%.
To `Cc1[nH]n(-c2nc(-c3ccccc3F)cc(=O)[nH]2)c(=O)c1CCO` belongs inactive: 4.34%.
As for `COc1ccc(N(CC(=O)NCCc2ccc(OC)c(OC)c2)S(=O)(=O)c2ccc(OC)c(OC)c2)cc1`, the figure is inactive: -10%.
Regarding `COc1ccc(CCNC(=O)c2ccc3ccccc3n2)cc1`, the “growth rescue (activation)” value is inactive: 6.44%.
`CCN(CC)c1ccc([N+](=O)[O-])cc1C(=O)O`: the “growth rescue (activation)” value is inactive: 23.7%.
As for `O=C(Cc1cccs1)N1CCN(S(=O)(=O)c2ccc(F)cc2)CC1`, the figure is inactive: 23.1%.
To `COCCn1c(Br)nc2c1c(=O)n(C)c(=O)n2C` belongs inactive: -15.2%.
As for `CCCCC(=O)Nc1ccc(C(=O)Nc2cc(C(F)(F)F)ccc2Cl)cc1`, the figure is inactive: 22.5%.
Consider `CCOC(=O)C1(C)CCCCN1C(=O)c1cccs1` (stereo not drawn), for which the “growth rescue (activation)” value was inactive: 6.52%.
`COc1ccc(NC(=S)c2ccc(N(C)C)cc2)cc1`: the “growth rescue (activation)” value is inactive: -4.12%.
As for `CC(=O)N1CCn2c3c(c(=O)c4cc(C)ccc42)CCC31` (stereo not drawn), the figure is inactive: -6.35%; as for `O=C(O)C1CCCCC1C(=O)Nc1ccc(S(=O)(=O)N2CCOCC2)cc1` (stereo not drawn), inactive: -1.32%.
To `CCOc1ccccc1NC(=O)Nc1cc(C(=O)O)ccc1C` belongs inactive: 2.25%.
To `Cc1cc(N/N=C/c2ccccc2F)c2ccccc2n1` belongs inactive: 10.1%.
As for `CCC1(c2ccccc2)NC(=O)N(CC(=O)NC2CCCC2)C1=O` (stereo not drawn), the “growth rescue (activation)” value is inactive: 13%.
To `Cc1ccc(NC(=S)NC2CCSc3ccccc32)cc1` (stereo not drawn) belongs inactive: 21.1%; to `CC(=O)NC1=NN(C(C)=O)C(C)(c2ccco2)S1` (stereo not drawn), inactive: 2.5%; to `Cn1/c(=N/N=C/c2ccc(Cl)c([N+](=O)[O-])c2)sc2ccccc21`, inactive: 12.9%.
For the compound `CCc1cccc(C)c1NC(=O)CN1C(=O)NC(C)(CCC(C)C)C1=O` (stereo not drawn), the “growth rescue (activation)” value is inactive: -6.69%.
Regarding `Cc1ccc(-n2c(C)n[nH]c2=S)cc1`, the “growth rescue (activation)” value was inactive: 0.426%.
As for `CC1(C)CC(=O)C(=CN2CCOCC2)C(=O)C1`, the figure is inactive: 13.8%; as for `O=C(O)c1ccc(OCc2ccc(C(=O)O)o2)cc1`, inactive: 0.609%; as for `Cc1ccc(-c2ccc(=O)n(Cc3cc(C)ccc3C)n2)cc1`, inactive: -11.5%.
`Cc1ccccc1-n1nc(C)c2cc(C(=O)N3CCN(S(=O)(=O)c4ccc(Cl)cc4)CC3)sc21`: the “growth rescue (activation)” value was inactive: 6.94%.
As for `O=C(COc1ccc2c(c1)OCO2)Nc1ccc(Cl)cn1`, the figure is inactive: 31.9%; as for `COc1ccc(CCNC(=O)CSc2nc(N)cc(=O)[nH]2)cc1OC`, inactive: -2.97%; as for `COc1ccccc1Oc1ccc(S(=O)(=O)N2CCOCC2)cc1S(=O)(=O)N1CCOCC1`, inactive: -1.88%.
As for `O=C(CCCSc1nc2ccccc2[nH]1)Nc1nnc(C2CC2)s1`, the figure is inactive: 5.64%.
As for `COC(=O)c1c(C)[nH]c(C(=O)OCc2csc(CC(=O)Nc3ccccc3C)n2)c1C`, the figure is inactive: 12.2%.
As for `CC(NC(=O)c1ccco1)c1nc(-c2ccc(C(C)(C)C)cc2)no1` (stereo not drawn), the “growth rescue (activation)” value was inactive: 24.1%.
To `O=C(O)CSC(=S)N1CCCCC1` belongs inactive: -7.26%; to `Cc1cccc(N=C2NN=C(c3ccccc3F)CS2)c1C`, inactive: 10.3%.
As for `CN(C)C(=O)CSc1cnc2ccccc2n1`, the figure is inactive: 1.76%; as for `CC(=O)Nc1ccc(NS(=O)(=O)c2ccc3[nH]c(=O)[nH]c3c2)cc1`, inactive: -18.8%; as for `CCOc1ccc(-c2cc(C(=O)Nc3cc(OC)c(OC)c(OC)c3)[nH]n2)c(C)c1`, inactive: 5.77%.
With `Cc1ccc(C)c(NC(=S)NCCN(C2CCCCC2)C2CCCC2)c1`, the “growth rescue (activation)” value is inactive: -0.138%.
Turning to `COc1ccc(OCCC(=O)OCC(=O)Nc2cccc(S(=O)(=O)N3CCCCC3)c2)cc1`, the “growth rescue (activation)” value is inactive: 1.38%.
For the compound `C/C(=N\NC(=O)c1ccc([N+](=O)[O-])cc1)c1cccc([N+](=O)[O-])c1`, the “growth rescue (activation)” value was inactive: -0.997%.
To `COc1ccc(CCNC(=O)C2COc3ccccc3O2)cc1OC` (stereo not drawn) belongs inactive: 13.7%; to `Cc1cc(NC(=O)c2ccc(Cl)cc2)n(CCC#N)n1`, inactive: -0.163%.
To `CN(C(=O)c1ccc(F)cc1)c1ccc(OCC(=O)Nc2ccccc2C(=O)O)cc1` belongs inactive: 10.8%.
As for `COc1ccc(N2C(=O)CC(N3CCN(S(=O)(=O)c4cc(C)ccc4C)CC3)C2=O)cc1` (stereo not drawn), the figure is inactive: 21.8%.
`O=C(CN(C(=O)c1csnn1)c1ccc(Br)cc1)NC1CCCCC1`: the “growth rescue (activation)” value is inactive: -1.82%.
To `O=C(NNC(=O)c1cccc(Cl)c1)NNC(=O)c1cccc(Cl)c1` belongs inactive: -8.17%; to `COc1cc2c(=O)n(CCC(=O)NCC3CCCO3)c(=O)n(CC(=O)Nc3ccc(C)cc3)c2cc1OC` (stereo not drawn), inactive: 9.86%.
`Cc1ccccc1-n1nnnc1SCC(=O)NC1CC1`: the “growth rescue (activation)” value is inactive: 5.88%.
To `Cc1cc(CC(=O)O)c(C)cc1CC(=O)O` belongs inactive: 15%; to `CCCc1cc(C(=O)Nc2ccc(C#N)cc2)no1`, inactive: 22.1%.
As for `Cc1cc(C)cc(N(CC(=O)NC2CCCCC2)C(=O)CCCC(=O)Nc2ccccn2)c1`, the figure is inactive: -26.2%; as for `O=C(NCc1ccco1)c1cc(=O)c2ccccc2o1`, inactive: 9.35%; as for `Cc1ccc(-c2cc3nc(NCCOc4ccccc4Cl)n(C)c(=O)c3s2)cc1`, inactive: 0.716%.
As for `Cc1ccc2nc3c(cc(S(=O)(=O)c4ccccc4)c(=N)n3C3CCCC3)c(=O)n2c1`, the figure is inactive: 2.01%; as for `COc1ccc(C(=O)N2CCN(Cc3ccc4c(c3)OCO4)CC2)cc1[N+](=O)[O-]`, inactive: 0.237%.
Turning to `CCOc1ccc(N(CC(=O)NN=C2CCN(C)CC2)S(C)(=O)=O)cc1`, the “growth rescue (activation)” value is inactive: -10.2%.
To `CCOc1ccc(CN(C(=O)c2ccco2)C2CCS(=O)(=O)C2)cc1` (stereo not drawn) belongs inactive: -1.82%.
As for `Cc1ccc(NCc2cccn2-c2nnc(N3CCC(C(=O)NC(C)C)CC3)s2)cc1`, the figure is inactive: 6.93%; as for `COc1ccc(NC(=S)N(CCC(C)C)C2CCN(C(C)C)CC2)cc1Cl`, inactive: -10.5%.
As for `COc1cc(NC(=O)c2c(-c3ccccc3Cl)noc2C)c2ncccc2c1`, the figure is inactive: 20.6%; as for `CCC1CCCCN1C(=S)Nc1ccc(C(C)=O)cc1` (stereo not drawn), inactive: 37.1%; as for `O=C(c1ccc(-c2ccccc2)cc1)C1CCCN(C(=O)Cn2cncn2)C1` (stereo not drawn), inactive: -8.23%.
Turning to `CC1CCCC(C)N1C(=O)c1cc(-c2ccco2)on1` (stereo not drawn), the “growth rescue (activation)” value was inactive: 21.3%.
`Cc1cc(Br)c(NC(=O)COC(=O)C2CC2C)c(Br)c1` (stereo not drawn): the “growth rescue (activation)” value was inactive: 35.9%.
As for `O=C(Cn1cnc2ccccc2c1=O)N/N=C/c1ccc(Br)cc1`, the figure is inactive: 13.4%.
As for `O=[N+]([O-])c1cc(S(=O)(=O)CCCN2CCOCC2)ccc1F`, the figure is inactive: 4.82%; as for `O=C(CN1CCN(Cc2ccccc2)CC1)N=Nc1c(O)[nH]c2ccccc12`, inactive: 11.5%; as for `COc1ccc(OC2C(=O)N(c3ccc(C)c(C)c3)C2c2ccc(OC)c(OC)c2)cc1` (stereo not drawn), inactive: 6.4%.
To `CCNc1nc(SC(C)C(=O)Nc2ccccc2)nc(N(C)C)n1` (stereo not drawn) belongs inactive: 1.96%; to `CNC(=O)c1ccc(NC(=O)CC23CC4CC(CC(C4)C2)C3)cc1`, inactive: 1.56%; to `COc1cccc(N(C(=O)Cn2nnc(-c3ccc(C)o3)n2)C(C(=O)NC2CCCC2)c2ccncc2)c1` (stereo not drawn), inactive: 0.66%.
On to `CC(CCc1ccccc1)NC(=O)N1CCOCC1` (stereo not drawn), for which the “growth rescue (activation)” value is inactive: 21.6%.
As for `Cc1nc(N2CCOCC2)nc(N2CCCCC2)c1[N+](=O)[O-]`, the figure is inactive: 14.3%; as for `CN(Cc1ccccc1)S(=O)(=O)c1ccc(OCC(=O)NCc2ccccn2)cc1`, inactive: 0.191%.
To `CCC(=O)Nc1c(C)n[nH]c1C` belongs inactive: -1.54%; to `CCN(NC(=O)C(O)(c1ccc(F)cc1)c1ccc(F)cc1)C(=O)c1ccccc1`, inactive: 26.3%; to `O=C(N/N=C/c1ccccc1OC(F)F)NC1CCCCC1`, inactive: 17.3%.
Take `CC(OC(=O)c1ccc(NC(N)=O)cc1)C(=O)Nc1ccc2c(c1)OCCO2` (stereo not drawn): the “growth rescue (activation)” value is inactive: 12.9%.
For the compound `O=C(/C=C/c1ccccc1[N+](=O)[O-])NCC1CCCO1` (stereo not drawn), the “growth rescue (activation)” value is inactive: 17%.
To `Cc1[nH]c2ccccc2c1/C=C(\C#N)C(=O)NCC1CCCO1` (stereo not drawn) belongs inactive: 5.31%.
As for `Cc1ccc(NC(=O)OCc2cncs2)cc1`, the figure is inactive: 3.1%; as for `COc1cccc(C(=O)NNC2=C(C(=O)C(F)(F)F)CCC2)c1`, inactive: 12.6%.
To `O=C(Nc1ccc(OC(F)(F)F)cc1)c1ccc2ccccc2n1` belongs inactive: 0.225%.
Take `CCOC(=O)C1=C(c2ccc(OC)cc2)OC(N)=C(C#N)C1c1cccnc1` (stereo not drawn): the “growth rescue (activation)” value is inactive: -7.88%.
To `Cc1cccc(C(=O)Nc2ccc(C(=O)N/N=C/c3ccc4c(c3)OCO4)cc2)c1` belongs inactive: 5.71%; to `NS(=O)(=O)c1ccc2nc(NC(=O)c3ccncc3)sc2c1`, inactive: -1.25%.
With `CCC(=O)OCCNc1cc(Sc2nccn2C)c2nonc2c1[N+](=O)[O-]`, the “growth rescue (activation)” value is inactive: 10.6%.
As for `COc1ccc(CCNC(=O)CSc2nnc(-c3ccccc3)c3ccccc23)cc1OC`, the figure is inactive: 28.4%; as for `CN(C)/C=N/c1c(C#N)cnn1-c1nc2ccccc2s1`, inactive: 9.92%.
As for `CCOC(=O)C1=C(CNCCc2ccc(Cl)cc2)NC(=O)NC1c1cccc([N+](=O)[O-])c1` (stereo not drawn), the figure is inactive: -0.0345%.
As for `Cc1cc(C)c(NC(=O)CCCN2C(=O)COc3ccc(C)cc32)c(C)c1`, the figure is inactive: 7.3%; as for `COCCNC(=O)Cc1c(C)c2cc3c(cc2oc1=O)OC(C)(C)CC3`, inactive: 9.86%.
Take `OCCN1CCN(CC(O)COCC2COc3ccccc3O2)CC1` (stereo not drawn): the “growth rescue (activation)” value was inactive: -7.09%.
To `O=C(Nc1cccc(C(F)(F)F)c1)c1cc[n+]([O-])cc1` belongs inactive: 10.5%; to `COc1ccc(C(=O)OC/C(O)=C(\C#N)c2nc3ccccc3[nH]2)cc1S(=O)(=O)N1CCOCC1`, inactive: 6.71%.
As for `COc1ccccc1-n1c(=O)c2c3c(sc2n2c(SC(C)C)nnc12)CCC3`, the figure is inactive: 20.8%; as for `N#Cc1ccc(OCc2ccc(C(=O)O)o2)cc1`, inactive: 8.09%.
As for `COCC(C)n1c(SCC(=O)NNC(=O)c2ccccc2)nc2ccccc2c1=O` (stereo not drawn), the figure is inactive: 1.92%; as for `CC(C)[C@H](NC(=O)c1ccco1)C(=O)N(C)Cc1ccc(C(F)(F)F)cc1`, inactive: 5.25%.
As for `COc1ccc(-c2[nH]nc3oc(=O)c(CCO)c(C)c23)cc1`, the “growth rescue (activation)” value is inactive: -15.4%.
As for `CC(=O)NCc1ccc(S(=O)(=O)N2CCN(c3ccccn3)CC2)cc1`, the figure is inactive: -7.13%; as for `Cc1ccc(S(=O)(=O)N2CCC(C(=O)NCC3CC3)CC2)cc1`, inactive: 8.13%.
Regarding `O=[N+]([O-])c1ccc(OCC(O)CN2CCN(c3ccccc3F)CC2)cc1` (stereo not drawn), the “growth rescue (activation)” value is inactive: 9.86%.
To `O=C(Nc1ccc(N2CCCCC2)cc1)c1cc([N+](=O)[O-])cc([N+](=O)[O-])c1` belongs inactive: -1.91%.
As for `Cc1ccc(NC(=O)COC(=O)CNC(=O)C2CCCCC2)cc1S(=O)(=O)N(C)C`, the figure is inactive: -6.63%.
As for `COc1ccc(CNC(=O)COC(=O)C2=Cc3ccccc3OC2)cc1`, the figure is inactive: -2.87%.
On to `Cc1cc(NNC(=O)c2ccccc2)nc(NNC(=O)c2ccccc2)n1`, for which the “growth rescue (activation)” value was inactive: 5.08%.
To `COc1ccccc1N(C)S(=O)(=O)c1ccc(C(=O)N2CCCc3ccccc32)cc1` belongs inactive: 19.6%.
